The whole screen tested about 150,000 compounds, of which about 540 (0.36%) showed an effect of 50% or more. This is one part of the list.
test system: Plasmodium falciparum; test: Primary screen in NF54 nanoGlo assay, in single point, at 2uM, 72h; a lower Z score goes with more inhibition; type: functional, Erythrocyte; conditions: timepoint 72 hour

| SMILES | % Inhibition [%] | Z score |
| --- | --- | --- |
| Cc1nnc2ccc(NC3CC=CC3)nn12 | -12 | 1.71 |
| Cn1ncnc1[C@@H](NC(=O)CCCOc1ccccc1)C1CC1 | -13 | 2.03 |
| CCOc1ccc(-c2cc3nc(C4CCN(C(=O)OC(C)(C)C)CC4)c(C(=O)Nc4ccc(Br)c(C)c4)cn3n2)cc1 | -1 | 0.08 |
| CO[C@@H]1CC[C@@]2(OC)CCN(C(=O)c3cccc4cc(C)oc34)[C@H]2C1 | 3 | -0.34 |
| CCc1nocc1CN1CCO[C@H](c2cccs2)C1 | -8 | 1.19 |
| Cc1cc(NC(=O)[C@@H]2CCCN2C(=O)c2cccs2)sn1 | -2 | 0.31 |
| CCc1nocc1CN(C)C(=O)[C@@H]1CCCCC(=O)N1 | 2 | -0.27 |
| CN(C)c1cc(C(=O)Nc2c(O)cccc2F)ccn1 | -12 | 1.81 |
| Cc1ccccc1NC(=O)Nc1ccc(-n2nc(OCc3ccc(F)cc3)nc2-c2ccc(C(F)(F)F)cc2)cc1 | -13 | 1.47 |
| O=C(Cn1ncnn1)NCCc1ccc(Br)cc1Cl | -21 | 2.75 |
| Cc1noc(OCCc2ccccc2)n1 | 32 | -1.07 |
| Cc1ccsc1CN(CCC(N)=O)C(C)C | -12 | 1.56 |
| Cc1ccc2ncccc2c1-c1cc(C2CC2)ncn1 | -10 | 1.35 |
| Cn1cc(NC(=O)c2sccc2S(=O)(=O)N2CCc3ccccc3C2)cn1 | 0 | 0.03 |
| COCCNC(=O)CN(C)C(=O)c1ccc(Cl)cc1F | -10 | 0.81 |
| C[C@H](NS(C)(=O)=O)c1nc(C2CCCC2)nn1CCc1ccccc1 | -33 | 2.9 |
| CCN1CCC[C@@H]1CNc1nccc(-c2ccccn2)n1 | -15 | 2.31 |
| COc1ncccc1NC(=O)c1cccnc1O | -7 | 1.33 |
| C#CC1CN(C(=O)c2cc(Cl)c3c(c2)OCCCO3)C1 | -18 | 2.65 |
| COc1ccc(CCNC(=O)c2c(C)noc2-c2cccc(F)c2)cc1OC | -12 | 1.14 |
| O=C(OC1(C2CC2)CC1)c1ccc2nncn2c1 | -15 | 2.37 |
| Cc1ncc(C(=O)N2CCC3(CC2)CC(=O)N(CC(C)C)C3)cn1 | -5 | 0.97 |

| SMILES | % Inhibition [%] | Z score |
| --- | --- | --- |
| COc1ccc(-c2cc(C[C@H]3CNCC[C@H]3CC(=O)Nc3ccccc3)no2)cc1 | 37 | -1.45 |
| Cc1ccc(NC(=O)c2cccc(-c3nc(-c4ccc(F)cc4)no3)c2)nc1 | -16 | 1.78 |
| O=C(c1ccc(Br)o1)N1CC(Oc2nc3c(F)cccc3s2)C1 | -16 | 1.81 |
| CCOC(=O)C(Cc1ccc(OC(=O)C2C3CCCCC32)cc1)NC(=O)C1C2CCCCC21 (stereo not given) | -1 | 0.22 |
| Cc1ccccc1OCC(=O)Nc1nc(-c2c[nH]c(C(N)=O)c2)cs1 | -9 | 1.17 |
| CC[C@H](NC1CCN(c2nc(C)nc3sccc23)CC1)c1ccc(C)cn1 | -13 | 2.31 |
| CCS(=O)(=O)N[C@H](c1ccccn1)C(C)C | -8 | 1 |
| OCC1(Cn2cc(-c3ccc4nsnc4c3)nn2)CC1 | -12 | 2.28 |
| O=C(NC[C@H]1CCCN(Cc2sc3ccccc3c2Cl)C1)c1cccs1 | -20 | 1.75 |
| Cc1ccc(O[C@H]2CCCN(S(=O)(=O)C3CC3)C2)nn1 | -7 | 0.8 |
| Cc1ccc(S(=O)(=O)Nc2ccc(-c3noc(-c4ccccc4)n3)cc2)cc1 | 0 | 0.05 |
| N#Cc1ccc(C(=O)N2C[C@@H]3CC[C@H]2CN(c2cnccn2)C3)cc1 | -17 | 2.45 |
| CCOCC(=O)N1CCC(CCc2noc(N(C)C)n2)CC1 | -4 | 0.68 |
| C[C@H]1Cc2cc(-c3ccc(CNC(=O)C4CCC(O)CC4)cc3)ccc2O1 (stereo not given in full) | -9 | 1.86 |
| Cc1ccc(-c2c3c(=O)n(C)c(=O)n(C)c3c3n2-c2ccccc2N[C@@H]3c2ccc(C#N)cc2)cc1 | 6 | -1.09 |
| CN1C[C@H](O)[C@@H](N2CCC(c3cc(Cc4ccccc4)n[nH]3)CC2)C1 | -27 | 2.59 |
| CCOc1ccccc1NC(=O)CN1CCN(Cc2ccc(F)cc2)C(=O)C1=O | -7 | 0.69 |
| O=C(NC[C@@]1(CCO)CCOC1)c1cccnc1C1CC1 | -5 | 0.49 |
| CN(C)c1nsnc1Nc1cccc(Cl)c1 | -33 | 3.87 |
| O=C(NCCn1c(=O)n(Cc2ccc(F)cc2)c2cccnc21)[C@@H]1CCCO1 | -1 | 0.11 |
| O=C(Nc1ccc(N2CCOCC2)nc1)NC1CCCC1 | -2 | 0.32 |
| CCn1cc(NC(=O)[C@H]2CCN(C)C(=O)C2)cn1 | -1 | 0.16 |

| SMILES | % Inhibition [%] | Z score |
| --- | --- | --- |
| COC1C2CC3CN(C(=O)c4ccc(C(N)=O)o4)C1C3C2 (stereo not given) | 3 | -0.5 |
| COC(=O)[C@H](C(=O)Nc1ccc(Cl)c(Cl)c1)C1CCCCCC1 | -14 | 1.82 |
| Cc1cn[nH]c1[C@H]1CCCN(S(=O)(=O)c2ccc(F)c(Cl)c2)C1 | 1 | -0.08 |
| CC(=O)NCc1ccc(-c2c[nH]c3ccc(C)cc23)nc1 | -2 | 0.38 |
| Cc1cc(C2CC(C(=O)NCc3ccc4c(c3)OCO4)CN(C(=O)c3ccccc3)C2)ccc1F (stereo not given) | -12 | 1.35 |
| COc1cccc(-n2nc(C(=O)NCc3cccnc3)c(=O)n(Cc3ccccc3Cl)c2=O)c1 | 4 | -0.84 |
| Cc1cc(C(=O)N[C@H]2CCS(=O)(=O)C(C)(C)C2)c(C)n1C | -12 | 1.32 |
| c1cc(-n2ccnc2)cc(-n2cnnc2)c1 | -8 | 1.06 |
| CCOc1ccc(NC(=O)Cn2[nH]c(-c3ccc(C)cc3)cc2=O)cc1 | 4 | -0.55 |
| O=C(c1csc(-c2cc3ccccc3[nH]2)n1)N1CCN(c2ccccc2)CC1 | 9 | -1.14 |
| O=C(CC(O)c1ccccc1)NC1CCN(c2ccc(F)cc2F)C1 (stereo not given) | -8 | 1.35 |
| CC(=Cc1cnn(C(C)C)c1)c1cnccn1 | -16 | 2.29 |
| O=C(Nc1cccc(C(F)(F)F)c1)[C@H]1C[C@H]2CCCN2[C@@]12C(=O)Nc1ccccc12 | -18 | 1.73 |
| CC1(C)COCCN1CCN[C@H]1CCCc2cc(F)ccc21 | -5 | 0.5 |
| CCC1=NO[C@@H](CN2CCC(O)(Cc3cc(-c4ccccc4)no3)CC2)C1 | 6 | -0.81 |
| CN(C)c1ccc(C(=O)NC2CCC(F)(F)CC2)cc1 | -9 | 1.14 |
| Cc1nc(CC(=O)NCc2cccnc2-n2cnc3ccccc32)cs1 | -18 | 2.63 |
| CC(C)OC1CN(C(=O)CN(C)S(=O)(=O)c2ccccc2)C1 | -18 | 1.9 |
| CCN(CCC#N)C(=O)c1cccc(N(C)C)c1 | -13 | 1.7 |
| CC[C@H](NC(=O)CN1CCOc2ccccc2C1)c1ccc(S(C)(=O)=O)cc1 | -23 | 2.04 |
| Cc1cc(C2(NC(=O)Nc3sc(C)nc3CC(C)C)CCOCC2)on1 | 4 | -0.5 |
| COc1cccc(-n2c(=O)[nH]c3cc(-c4nc(-c5ccccc5)no4)ccc3c2=O)c1 | -16 | 1.84 |

| SMILES | % Inhibition [%] | Z score |
| --- | --- | --- |
| O=C(C1CCCN1)N1CCOC(C2CCCO2)C1 (stereo not given) | -1 | 0.15 |
| O=C(CN1CCN(c2ccccc2F)C1=O)NCCc1ccccc1 | -14 | 1.64 |
| CNC(=NCc1ccc(CN(C)C)c(F)c1)NC | -4 | 0.35 |
| Cc1cccc(C)c1NC(=O)[C@H]1c2cccc[n+]2CC(=O)N1c1ccc2c(c1)OCO2 | -9 | 1.37 |
| CC(=O)c1nn(-c2cccc(Cl)c2)cc1C(=O)c1nc2ccccc2s1 | -2 | 0.27 |
| Cc1csc(C(NC(=O)NCC2Cc3ccccc3O2)C2CC2)n1 (stereo not given) | -5 | 0.93 |
| CCN(Cc1ccccn1)C(=O)c1cc(-c2cnc(N)nc2)nc2c(C)c(C)ccc12 | -4 | 0.72 |
| CC[C@@H](c1cc(C)ccn1)n1cc(-c2ccc(OC)nc2)nn1 | -9 | 1.33 |
| Cc1ccc(C)c(NC(=O)N2C[C@H](c3nc(C)no3)C3(CCOCC3)C2)c1 | 2 | -0.47 |
| Cc1cc(C)nc(-n2cc(C(=O)OC3(C4CC4)CC3)c(C)n2)n1 | -12 | 1.09 |
| COc1ccccc1N1CCN(C(=O)[C@H](C)n2nc3c(cc2=O)CCC3)CC1 | 7 | -0.89 |
| C=CCn1ncc(Cc2cnn(CC=C)c2C)c1C | -23 | 4.39 |
| O=C(CO)N[C@@H]1CCC[C@H]1OC(F)F | -7 | 1.14 |
| Cc1cc(C)n(CCN(C)C(=O)CCCn2cnnn2)n1 | -6 | 0.94 |
| O=C1NCCCCCN(C(=O)c2ccoc2)[C@H]2CCCC[C@@H]12 | -6 | 0.83 |
| Cc1nc(N2CCCC2)nc(C)c1NC(=O)CCCc1ccccc1 | -9 | 1.59 |
| O=C(NCCC(c1ccccc1)c1ccccc1)c1cccc[n+]1[O-] | 6 | -1 |
| CC(C)c1cc(CN(C)Cc2ccc(Cn3cccn3)cc2)no1 | -10 | 0.99 |
| C[C@@H](N)C(=O)N1CCc2[nH]nc(-c3cccc4ccccc34)c2C1 | -16 | 2.1 |
